Data taken from US20260103529A1, “Amino Acid Sequences Directed Against the Melanocortin 4 Receptor and Polypeptides Comprising the Same for the Treatment of MC4R-Related Diseases and Disorders” (Confo Therapeutics N.V., priority 2022, published 2026).

Biological target: MC4R of the CHO stable cell line used for radioligand displacement (Table 1A) (UniProt P32245)
Experiment: radioligand displacement, CHO stable cell line, n = 2; radioligand not named

B1: pN0162-huFcIgG1_N297A (Fc fusion)
chain: QVQLVESGGGLVQPGGSLRLSCAASGSAFSLNVMGWYRQTPGNQRALVAEITKDGSTNYADSAKGRFTISRDNAKNTVHLQMDSLKPEDTAVYYCKARTGRIVRPLDYWGQGTQVTVSS[in this place human IgG1 Fc with changes]
Radioligand displacement (IC50 or Ki not stated): 0.89 nM
